Test results: the RNAGym collection of RNA variant scans (doi:10.1093/nar/gkz1192)
Read counts are not given, so values of variants with three or more changes are uncertain.

B1: CPEB3 Ribozyme (parent)
chain: UAACAGGGGGCCACAGCAGAAGCGUUCACGUCGCAGCCCCUGUCAGAUUCUGGUGAAUCUGCGAAUUCUGCUGUAUAUCUC

Variants of: B1
Assay: self-cleavage, relative activity (ratio to wild type); higher = more cleavage; in vitro, sequencing
How it was run: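 Libraries of CPEB3 self-cleaving ribozyme mutants came from rounds of error-prone PCR and carried barcodes, which DNA sequencing matched to variants. In vitro transcription used T7 RNA polymerase at 37°C for 5 hours, with a further 15 min in DNase I before EDTA stopped the reaction; the ribozymes cleaved during both steps. The RNA was reverse transcribed with template switching and sequenced on Illumina. Relative activity is the cleaved/total read fraction of a variant divided by that of the unmutated ribozyme, averaged over three batches with at least 5 reads.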

| Variant | self-cleavage |
| --- | --- |
| C12A A13C A21G U25A G30A A35G | 0.3 |
| C12U A47G A56G | 1.23 |
| C11U A20U A75G U76C | 0.06 |
| C11G C12G U80C | 0.48 |
| C12A A45U G73C | 1.13 |
| C12G U25C U60A | 0.16 |
| C12U A15C U25C C27U | 0.12 |
| C11U U25A G63A | 0.18 |
| C11U A13U U31A U41C | 0.26 |
| C11G A20G U41C A57U U58C U66C U78C | 0.05 |
| C11U A28G A45G C79A | 0.22 |
| G10U C17A A18G G61U A77G | 0.04 |
| C11A U43A A64U | 0.08 |
| C11G U25C U26G A56C U80C | 0.29 |
| C11G C39U C44A U66A U67C | 0.04 |
| C11U A47C G52U U72A | 0.1 |
| C11G U31G U48A U74G | 0.41 |
| C12U A56U U67C A77U U80C | 0.38 |
| C11A U48A G55A U60C U74C | 0.15 |
| C11U U60A U76C U78C | 0.12 |
| C11U A28U U49C A57G U66A | 0.06 |
| C11G U43A U54C U67C | 0.06 |
| C12A A15U G24U A57G U66C U76C | 0.04 |
| C12A A64U U67A U69G | 0.26 |

| Variant | self-cleavage |
| --- | --- |
| C12A U41A U43C U72C | 0.31 |
| C11U A28C C40U C59G | 0.06 |
| C12U A21U A28G U76C | 0.2 |
| G10U A35G A56G C68G | 0.05 |
| G10C G46U U54A A56G | 0.22 |
| C11G U25C U54C U74A | 0.08 |
| C11U C34U U41C U72C U74C | 0.3 |
| C11U A35G C40U U54A U78A | 1.24 |
| C12A A15U A35G U41C U54C U60A U69A | 0.12 |
| C11G A20G U31C C44G U49C G53A A77G | 0.21 |
| C11G C40A A45U U60C G63C | 0.03 |
| C11G A20U A28G | 0.08 |
| C12U A45G A75U | 1.18 |
| C11G U26A U31C C40A U43C U58C U66C | 0.04 |
| G10C U49A U58A U76C | 0.25 |
| C11G U26C U51A A65U U76A | 0.06 |
| G10C U25C U31A U80C | 0.37 |
| G10C C14A A20G U51A G52U | 0.3 |
| C12A C39A A65G U67A | 0.18 |
| C11G A28G U58A U69C | 0.05 |
| G10U A15U U25C A28G U60A | 0.14 |
| C11U A18U U49C U72C | 0.13 |
| C11U A18G U26C A28G U51C | 0.15 |
| C11G C32A U41A U66C U78C | 0.19 |

| Variant | self-cleavage |
| --- | --- |
| C12A A18U A20U U54A | 0.26 |
| C12A G61A C81U | 1.08 |
| C11U A18U A35U A45U C62A | 0.19 |
| C12U A21G G33A | 0.05 |
| C11G A18U G33U | 0.05 |
| C12A U25C U26C A35G A57C | 0.09 |
| C11U A13C G16U A21G C32U U51C U78C | 0.04 |
| C12G A56U A64G | 0.2 |
| C12G A13G A20U A35G U74A | 0.13 |
| G10U U48A A56G A65G | 0.04 |
| C11G U49C A64G | 0.07 |
| C12G U49C U51C | 0.24 |
| C11G G63A U78C | 0.16 |
| C11U A15G A20G A28G U72C | 0.15 |
| G10U U67C U72C A77U | 0.13 |
| C12G U48C U60A U78G U80C | 0.07 |
| C11U G33A U80C | 0.44 |
| G10U A15U U54G | 0.13 |
| G10C U26C A45G | 0.15 |
| C11G A13G U72C | 0.09 |
| C11U C44U U72C | 0.43 |
| C12U A18G C29U U54A A56G A64G U78C | 0.19 |
| G10U A21G A47G U51A U74C | 0.04 |
| C11A A20U A75G | 0.35 |

| Variant | self-cleavage |
| --- | --- |
| C11G A13C U25C U54G | 0.07 |
| C11G A35G U60C U66A A77G | 0.06 |
| C12G A13G A20U A65G U66A | 0.33 |
| G10U A21G A45G U67G | 0.31 |
| C11U G33A C38U C62G | 0.74 |
| C11G A13G A47G A57G | 0.48 |
| C12U A28G A45U U76G | 0.25 |
| C12U A18G U49A | 0.83 |
| C11A A18G U43C U58C U74A U78C | 0 |
| C11G U41A A75U | 0.08 |
| C12A G24U U26C | 0.17 |
| G10U C40U U66C U74C | 0.12 |
| C11G U43C U54G | 0.23 |
| C12U A56G G63A | 1.26 |
| C11G A21G U41A U48C A57G | 0.05 |
| C11A A18U U72C A77U | 0.09 |
| C11G A18U U54C | 0.13 |
| G10C C14G A18G A20G C40U U51A G52U | 0.04 |
| C11U U31C U41A U43C A45U | 0.14 |
| G10C U25A U51A U76C A77U U78A | 0.06 |
| C12G A13G U25C A35U A56G U58C A64G | 0.05 |
| C11A U43C U54C C79A C81A | 0.09 |
| C11G A18U A35U U74C | 0.51 |
| C11A U43C U51A U60C U74C | 0.27 |

| Variant | self-cleavage |
| --- | --- |
| C12U A13G A45U U49C A65G | 0.06 |
| C12A U48C U54C | 0.42 |
| G10C C29U U43C A47G U51C U54C U60C | 0.08 |
| C11U U26C G53A | 0.12 |
| C11A C23G C44A U54G A64G | 0.16 |
| C12A A28U C40A U43A | 0.23 |
| C11G A20G U26C | 0.25 |
| C12U A21G U51A U69C | 0.36 |
| C11A A20G A21G G36U U67C U72C | 0.26 |
| G10U A64G U78A | 0.15 |
| C11G U26C A47G U72A | 0.33 |
| G10U A28U C50A U67C | 0.09 |
| C11U U58A C79G | 0.12 |
| C12G A18C U25C U26C U43C C68G U69C | 0.22 |
| C11A A13G U26C U41G | 0.05 |
| C11U A28U A65G U69A | 0.13 |
| G10U A15G A18G C29U U66G | 0.07 |
| C12U A18C U60A | 0.33 |
| C11G A21G U25A A57G U60A U67C | 0.28 |
| C11A A15G C44U U54C A57U | 0.09 |
| C11G A13U U31C G42U U66C U69A | 0.05 |
| C12U A13U U43A U72C | 1.26 |
| C12U A18G G46A | 0.18 |
| C11U A18U A35U | 0.16 |

| Variant | self-cleavage |
| --- | --- |
| C11G C37U A64U U67C U72A | 0.06 |
| C12U A28G U41C U72A | 0.71 |
| G10U C12G U26A U54C A57G U60A U67C | 0.03 |
| C11U U25C U26C G55A U80G | 0.09 |
| C11G A20G A64U U72A U78C U80C | 0.04 |
| G10U A28G U51A U54A A64U | 0.07 |
| C11U A47G A65G | 0.49 |
| C11U A28U U54A U69A U72C | 0.09 |
| C12G A15U U66C U76C | 0.2 |
| G10C U41G U48C U80A | 0.04 |
| C11U U58G A64U U72C U76A | 0.06 |
| G10C G16A U69C U74A | 0.28 |
| C11G C23U U58C | 0.06 |
| C11U A13G G19C U25C U60A U72C | 0.03 |
| C11G A18G A56U A64U | 0.16 |
| C12U A15U A18C G55A | 0.06 |
| G10U U31C U43A U67G | 0.05 |
| C12U A18G U25C U78C | 0.2 |
| C11A C23G U25C U54C U69A | 0 |
| C11G C14A A28G A47G G61A | 0.18 |
| C12U A18U A45G U49C | 0.15 |
| G10U U54C G63A C68A | 0.13 |
| G10C U54C U78A | 0.19 |
| G10U U25C U41C A57C C71A | 0.14 |

| Variant | self-cleavage |
| --- | --- |
| C11U U25A U31A U72C | 0.15 |
| G10U U54A A57G | 0.2 |
| C12A G16A U60C U69A U72C | 0.1 |
| C11G C17U A18U | 0.08 |
| G10U A20G A21G C38U U41A U74C U78C | 0.03 |
| C11G U26C U48C | 0.09 |
| C11U A20U U80C | 0.28 |
| C11U A35G U43C U54C U60G | 0.2 |
| C11G A28G G30A A45U A56U | 0.06 |
| C11A A35U A65G A77G | 0.12 |
| C11U A13G A28U U41C U49C A64G | 0.05 |
| C12G U26A C32G U69A | 0.03 |
| C11A A18G U72C | 0.42 |
| C12U A57G A64G | 1.16 |
| C11A A15U A64U | 0.04 |
| C11G A77G C79G | 0.46 |
| C11U A21U G63A | 0.14 |
| C12U A35G A47G U66C U74C | 0.5 |
| C12U A28G A45C U48C U66C | 0.17 |
| C11A A13G U60C U67C U69A | 0.13 |
| C12G U31A A47G U60C | 0.09 |
| C11U U25C U41C | 0.22 |
| C12U A13G A15G U43A A64G | 0.1 |
